Some of the results follow.
biological target: T1, MBP-FoxP1dN (Mus musculus, UniProt P58462 326-579); assay: PD-seq (MBP pull-down with sequencing); 20 mM Tris-HCl pH 7.5, 100 mM NaCl, 1.5 mM MgCl2, 0.4 uM protein, 0.1 uM dsDNA library, 30 min, room temperature, amylose pull-down; high values mean tight binding; conditions: protein: recombinant; tags: His6-MBP; chain copies: 2; dsDNA, one strand shown
T1 sequence: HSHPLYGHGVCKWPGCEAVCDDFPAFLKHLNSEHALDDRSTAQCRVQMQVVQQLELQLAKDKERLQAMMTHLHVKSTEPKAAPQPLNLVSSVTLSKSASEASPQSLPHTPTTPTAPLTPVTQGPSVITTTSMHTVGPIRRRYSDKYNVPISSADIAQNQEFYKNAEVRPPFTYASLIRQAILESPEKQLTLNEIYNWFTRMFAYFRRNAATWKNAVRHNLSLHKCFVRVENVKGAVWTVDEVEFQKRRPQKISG
In short: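 Binding is given as reads-per-million enrichment, pull-down over input, with replicates pooled. The bait was an N-terminus-lacking mouse FoxP3 or FoxP1 fragment with a His6-MBP tag, expressed in E. coli and used at 0.4 µM with 0.1 µM Klenow-filled degenerate double-stranded DNA library for 30 min at room temperature in Tris pH 7.5 buffer with NaCl and MgCl2. Amylose resin pull-down with three washes was followed by proteinase K release, PCR barcoding and Illumina sequencing.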

Sequence	binding signal
GATGATTGTTCTCCCAGCTGATGAATTACCGATCTCGAGTAAACAAATTTTCCTAATCTTTCTGTTCAAGCGCCATCTAC	0.951 RPM ratio (pull-down/input)
GATGATTGTTCTCCCAGCTGATGAATTGAGCCAATCGAGTAAACAAATTTTCCTAATCTTTCTGTTCAAGCGCCATCTAC	0.937 RPM ratio (pull-down/input)
GATGATTGTTCTCCCAGCTGATGAATTTCAAGAATCGAGTAAACAAATTTTCCTAATCTTTCTGTTCAAGCGCCATCTAC	0.984 RPM ratio (pull-down/input)
GATGATTGTTCTCCCAGCTGATGAATTACCGAGGTCGAGTAAACAAATTTTCCTAATCTTTCTGTTCAAGCGCCATCTAC	0.885 RPM ratio (pull-down/input)
GATGATTGTTCTCCCAGCTGATGAATTTATGACCTCGAGTAAACAAATTTTCCTAATCTTTCTGTTCAAGCGCCATCTAC	0.986 RPM ratio (pull-down/input)
GATGATTGTTCTCCCAGCTGATGAATTTCGGATGTCGAGTAAACAAATTTTCCTAATCTTTCTGTTCAAGCGCCATCTAC	0.824 RPM ratio (pull-down/input)
GATGATTGTTCTCCCAGCTGATGAATTTTCCCGATCGAGTAAACAAATTTTCCTAATCTTTCTGTTCAAGCGCCATCTAC	0.852 RPM ratio (pull-down/input)
GATGATTGTTCTCCCAGCTGATGAATTTCAACCGTCGAGTAAACAAATTTTCCTAATCTTTCTGTTCAAGCGCCATCTAC	0.768 RPM ratio (pull-down/input)
GATGATTGTTCTCCCAGCTGATGAATTTTCATGCTCGAGTAAACAAATTTTCCTAATCTTTCTGTTCAAGCGCCATCTAC	0.884 RPM ratio (pull-down/input)
GATGATTGTTCTCCCAGCTGATGAATTAATTATCTCGAGTAAACAAATTTTCCTAATCTTTCTGTTCAAGCGCCATCTAC	1.01 RPM ratio (pull-down/input)
GATGATTGTTCTCCCAGCTGATGAATTTAGAGGCTCGAGTAAACAAATTTTCCTAATCTTTCTGTTCAAGCGCCATCTAC	1.21 RPM ratio (pull-down/input)
GATGATTGTTCTCCCAGCTGATGAATTTTCTAATTCGAGTAAACAAATTTTCCTAATCTTTCTGTTCAAGCGCCATCTAC	1.05 RPM ratio (pull-down/input)
GATGATTGTTCTCCCAGCTGATGAATTTGCCAATTCGAGTAAACAAATTTTCCTAATCTTTCTGTTCAAGCGCCATCTAC	1.01 RPM ratio (pull-down/input)
GATGATTGTTCTCCCAGCTGATGAATTGTACTCTTCGAGTAAACAAATTTTCCTAATCTTTCTGTTCAAGCGCCATCTAC	1.08 RPM ratio (pull-down/input)
GATGATTGTTCTCCCAGCTGATGAATTTTGCGTATCGAGTAAACAAATTTTCCTAATCTTTCTGTTCAAGCGCCATCTAC	1.16 RPM ratio (pull-down/input)
GATGATTGTTCTCCCAGCTGATGAATTCTTGCATTCGAGTAAACAAATTTTCCTAATCTTTCTGTTCAAGCGCCATCTAC	1.24 RPM ratio (pull-down/input)
GATGATTGTTCTCCCAGCTGATGAATTATTGAGCTCGAGTAAACAAATTTTCCTAATCTTTCTGTTCAAGCGCCATCTAC	0.941 RPM ratio (pull-down/input)
GATGATTGTTCTCCCAGCTGATGAATTGTAGCTTTCGAGTAAACAAATTTTCCTAATCTTTCTGTTCAAGCGCCATCTAC	1.05 RPM ratio (pull-down/input)
GATGATTGTTCTCCCAGCTGATGAATTCAGATATTCGAGTAAACAAATTTTCCTAATCTTTCTGTTCAAGCGCCATCTAC	1.01 RPM ratio (pull-down/input)
GATGATTGTTCTCCCAGCTGATGAATTTTACGAGTCGAGTAAACAAATTTTCCTAATCTTTCTGTTCAAGCGCCATCTAC	0.847 RPM ratio (pull-down/input)

Sequence	binding signal
GATGATTGTTCTCCCAGCTGATGAATTTGTGACATCGAGTAAACAAATTTTCCTAATCTTTCTGTTCAAGCGCCATCTAC	1.39 RPM ratio (pull-down/input)
GATGATTGTTCTCCCAGCTGATGAATTTTATCGATCGAGTAAACAAATTTTCCTAATCTTTCTGTTCAAGCGCCATCTAC	0.946 RPM ratio (pull-down/input)
GATGATTGTTCTCCCAGCTGATGAATTGAGCGTTTCGAGTAAACAAATTTTCCTAATCTTTCTGTTCAAGCGCCATCTAC	0.97 RPM ratio (pull-down/input)
GATGATTGTTCTCCCAGCTGATGAATTATAAGTGTCGAGTAAACAAATTTTCCTAATCTTTCTGTTCAAGCGCCATCTAC	1.11 RPM ratio (pull-down/input)
GATGATTGTTCTCCCAGCTGATGAATTGGATTGGTCGAGTAAACAAATTTTCCTAATCTTTCTGTTCAAGCGCCATCTAC	0.827 RPM ratio (pull-down/input)
GATGATTGTTCTCCCAGCTGATGAATTTTCTCGTTCGAGTAAACAAATTTTCCTAATCTTTCTGTTCAAGCGCCATCTAC	0.939 RPM ratio (pull-down/input)
GATGATTGTTCTCCCAGCTGATGAATTGGTATGGTCGAGTAAACAAATTTTCCTAATCTTTCTGTTCAAGCGCCATCTAC	1.02 RPM ratio (pull-down/input)
GATGATTGTTCTCCCAGCTGATGAATTAATAACATCGAGTAAACAAATTTTCCTAATCTTTCTGTTCAAGCGCCATCTAC	2.02 RPM ratio (pull-down/input)
GATGATTGTTCTCCCAGCTGATGAATTATCTGCCTCGAGTAAACAAATTTTCCTAATCTTTCTGTTCAAGCGCCATCTAC	0.974 RPM ratio (pull-down/input)
GATGATTGTTCTCCCAGCTGATGAATTATCCGCCTCGAGTAAACAAATTTTCCTAATCTTTCTGTTCAAGCGCCATCTAC	0.957 RPM ratio (pull-down/input)
GATGATTGTTCTCCCAGCTGATGAATTGTGCCAGTCGAGTAAACAAATTTTCCTAATCTTTCTGTTCAAGCGCCATCTAC	0.926 RPM ratio (pull-down/input)
GATGATTGTTCTCCCAGCTGATGAATTATGGTCGTCGAGTAAACAAATTTTCCTAATCTTTCTGTTCAAGCGCCATCTAC	0.971 RPM ratio (pull-down/input)
GATGATTGTTCTCCCAGCTGATGAATTGCGTCTCTCGAGTAAACAAATTTTCCTAATCTTTCTGTTCAAGCGCCATCTAC	1.01 RPM ratio (pull-down/input)
GATGATTGTTCTCCCAGCTGATGAATTTGCACTCTCGAGTAAACAAATTTTCCTAATCTTTCTGTTCAAGCGCCATCTAC	1.04 RPM ratio (pull-down/input)
GATGATTGTTCTCCCAGCTGATGAATTTACCTGTTCGAGTAAACAAATTTTCCTAATCTTTCTGTTCAAGCGCCATCTAC	1.25 RPM ratio (pull-down/input)
GATGATTGTTCTCCCAGCTGATGAATTTAATAAATCGAGTAAACAAATTTTCCTAATCTTTCTGTTCAAGCGCCATCTAC	1.25 RPM ratio (pull-down/input)
GATGATTGTTCTCCCAGCTGATGAATTATTTCTATCGAGTAAACAAATTTTCCTAATCTTTCTGTTCAAGCGCCATCTAC	1.13 RPM ratio (pull-down/input)
GATGATTGTTCTCCCAGCTGATGAATTCTGTGCTTCGAGTAAACAAATTTTCCTAATCTTTCTGTTCAAGCGCCATCTAC	0.975 RPM ratio (pull-down/input)
GATGATTGTTCTCCCAGCTGATGAATTTGAGAACTCGAGTAAACAAATTTTCCTAATCTTTCTGTTCAAGCGCCATCTAC	0.767 RPM ratio (pull-down/input)
GATGATTGTTCTCCCAGCTGATGAATTAGACAGTTCGAGTAAACAAATTTTCCTAATCTTTCTGTTCAAGCGCCATCTAC	0.913 RPM ratio (pull-down/input)
